We go through 23 molecules from ChEMBL document CHEMBL4888484, “Replenishing the malaria drug discovery pipeline: Screening and hit evaluation of the MMV Hit Generation Library 1 (HGL1) against asexual blood stage Plasmodium falciparum ,using a nano luciferase reporter read-out” (2022).

Among all 150,000 compounds or so, about 540 (0.36%) showed an effect of 50% or more. Some of the results follow.

The subject of the assay is Plasmodium falciparum. The assay can be described thus: Primary screen in NF54 nanoGlo assay, in single point, at 2uM, 72h; a lower Z score goes with more inhibition. The assay is classed as functional, Erythrocyte. To be noted: timepoint 72 hour.
On to `Cc1ccc(C)c(NS(=O)(=O)c2ccc3c(c2)sc(=O)n3CCC(=O)N2CCCC2)c1`, for which the % Inhibition (in general, the drop in the measured response relative to a control, in per cent) amounted to 7% and the Z score is given as -0.83.
The like results for `COc1ccc(CN2C(=O)N[C@@H](CCC(=O)Nc3ccc4c(c3)OCCO4)C2=O)cc1` were, in that order, 5% and -0.68.
`O=C(NCCc1ccccn1)[C@H](c1ccccc1)n1cnnn1`: the “% Inhibition” value is recorded as -6% and the Z score worked out at 1.2.
For the molecule `Cc1ccc(NC(=O)C2CCC(=O)CC2C)nc1` (stereo unspecified), the “% Inhibition” value is -17% and the Z score is 2.27.
The like results for `CC(C)(O)CN(Cc1ccccc1)C(=O)Nc1nnc2ccccn12` were, in that order, -8% and 0.84.
The like results for `O=C(CC1CC2CCC1C2)NCCc1cn2cccnc2n1` (stereo unspecified) were, in that order, -2% and 0.23.
The like results for `CC[C@H](C)NC(=O)c1ccc(CN2C(=O)COc3ccc(C(=O)COc4cc(C)ccc4F)cc32)o1` were, in that order, -3% and 0.33.
Turning to `Cn1cc([C@@H]2CCCN2Cc2coc(-c3ccccc3)n2)cn1`, the “% Inhibition” value is listed as -15% and the Z score came to 1.51.
Take `N#C[C@H]1CCCN(CCN2CCN(c3ccccc3)CC2)C1`: the “% Inhibition” value is listed as -7% and the Z score is 1.13.
The like results for `O=C(CN1CCC2(CC1)OCCO2)c1c[nH]c2ccccc12` were, in that order, 4% and -0.46.
`CC(C)[C@H](NS(C)(=O)=O)c1ccc(F)cc1F`: the “% Inhibition” value was determined as 27% and the Z score is given as -3.
The like results for `CCC(Oc1ccc(F)cc1)C(=O)N(Cc1cccc2ccccc12)C1CCS(=O)(=O)C1` (stereo unspecified) were, in that order, 1% and -0.12.
The like results for `CNC(=O)CN1CCN(C(=O)c2ccc3c(c2)ncn3C(C)C)CC1` were, in that order, -3% and 0.26.
The like results for `O=C(Nc1cnn(CCF)c1)Nc1cc2c(cn1)CCCC2` were, in that order, -9% and 0.93.
On to `COC(=O)Cc1nnn(CC(=O)NC(=O)Nc2ccccc2)n1`, for which the “% Inhibition” value is reported as -4% and the Z score is 0.63.
The like results for `Cc1cc(F)ccc1CC(=O)N[C@@H](CC(=O)O)C(C)C` were, in that order, 8% and -1.18.
Turning to `CCc1noc(C)c1NC(=O)C(=O)NC(C)(C)C`, the “% Inhibition” value is on record as -12% and the Z score was 2.36.
The like results for `Cc1cnc(C(=O)N2CC[C@H](n3c(=O)n(C)c4cccnc43)C2)cn1` were, in that order, 9% and -1.68.
`Cc1cc(CCC(=O)NCc2ccc3c(c2)C(=O)NCC3)no1`: the “% Inhibition” value is recorded as 0% and the Z score worked out at 0.01.
Consider `CCC[C@H](C)N1CC2(CCN(C(=O)c3ccc(O)c(C)c3)CC2)OC1=O`, for which the “% Inhibition” value is given as -6% and the Z score is recorded as 1.1.
The like results for `O=C(C[C@@H](c1ccsc1)n1cnnn1)Nc1ccc2c(c1)OCCO2` were, in that order, -2% and 0.31.
The like results for `CC(C)N1CCC(N2CCN(CCCC3CCCC3)C[C@@H]2CCO)CC1` were, in that order, -17% and 1.78.
As to `O=C(Nc1ccc(F)cc1Cl)N1C[C@@H]2[C@@H]3CC[C@@H](C3)[C@@H]2C1`, the “% Inhibition” value is recorded as -23% and the Z score came to 2.65.
